In all, about 310,000 compounds went through this assay and about 14,000 (4.5%) showed an effect of 50% or more. Effects have a minus sign here. This is one part of the list.
target: human ether-à-go-go-related gene (hERG) potassium channel (human, UniProt Q12809); assay: primary screen, population patch clamp on CHO cells stably expressing hERG
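Further: peak tail current of the secondary pulse compared with the same well before compound.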

Sequence of human ether-à-go-go-related gene (hERG) potassium channel (Q12809 whole entry, looked up): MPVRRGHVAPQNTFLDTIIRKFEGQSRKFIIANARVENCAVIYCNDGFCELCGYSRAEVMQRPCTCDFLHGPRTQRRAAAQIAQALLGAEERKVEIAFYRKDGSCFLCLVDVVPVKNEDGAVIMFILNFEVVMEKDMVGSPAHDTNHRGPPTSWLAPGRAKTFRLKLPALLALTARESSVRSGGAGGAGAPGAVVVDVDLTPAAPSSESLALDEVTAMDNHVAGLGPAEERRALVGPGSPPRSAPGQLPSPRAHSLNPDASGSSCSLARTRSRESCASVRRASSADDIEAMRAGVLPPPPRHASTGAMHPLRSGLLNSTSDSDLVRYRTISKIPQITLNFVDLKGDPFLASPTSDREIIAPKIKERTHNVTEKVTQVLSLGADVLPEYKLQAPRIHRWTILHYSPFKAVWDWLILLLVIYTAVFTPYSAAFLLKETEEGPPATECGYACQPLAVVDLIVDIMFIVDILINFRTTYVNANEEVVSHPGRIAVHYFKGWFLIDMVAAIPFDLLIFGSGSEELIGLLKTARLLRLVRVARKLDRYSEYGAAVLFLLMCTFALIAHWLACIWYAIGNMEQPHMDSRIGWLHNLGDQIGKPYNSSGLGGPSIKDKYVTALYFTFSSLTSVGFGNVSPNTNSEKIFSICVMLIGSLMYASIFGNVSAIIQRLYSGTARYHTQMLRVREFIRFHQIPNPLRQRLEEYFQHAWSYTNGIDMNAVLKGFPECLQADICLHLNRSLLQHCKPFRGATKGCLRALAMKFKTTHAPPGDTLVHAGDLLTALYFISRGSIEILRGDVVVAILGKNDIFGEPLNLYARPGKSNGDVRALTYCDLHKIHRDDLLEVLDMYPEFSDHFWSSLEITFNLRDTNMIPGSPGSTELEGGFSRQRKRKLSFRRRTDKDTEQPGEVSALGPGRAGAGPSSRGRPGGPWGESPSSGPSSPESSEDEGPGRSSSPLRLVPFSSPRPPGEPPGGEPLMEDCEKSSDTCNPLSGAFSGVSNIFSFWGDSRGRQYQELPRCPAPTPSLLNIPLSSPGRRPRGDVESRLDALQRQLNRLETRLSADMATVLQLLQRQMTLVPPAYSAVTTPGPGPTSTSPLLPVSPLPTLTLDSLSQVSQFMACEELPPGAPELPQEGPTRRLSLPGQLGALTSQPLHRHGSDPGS

Row | SMILES | hERG current change (%, negative = inhibition) at 10uM [%]
1 | CCc1nnc(N/N=C\c2ccc(OC(C)=O)c(OC)c2)n1N.Cl | 12.6
2 | Cc1ccc2c(c1)cc(C)c1nnc(SCC(=O)NCc3ccco3)n12 | -41.3
3 | COc1cc(NC(=O)COC(=O)/C=C/c2c(C)nn(C3CCS(=O)(=O)C3)c2Cl)cc(OC)c1OC (stereo not drawn) | 9.21
4 | COc1ccc(CCNC(=O)CSc2ccsc2[N+](=O)[O-])c(OC)c1 | 3.81
5 | CN(C)c1ccc(/C=N/NC(=O)c2ccc(CN3CCOCC3)cc2)cc1Br | -47.5
6 | COc1cc(OC)c(/C=N/NC(=O)Cn2nc([N+](=O)[O-])cc2C)c(OC)c1 | 3.01
7 | Cc1ccc(N2C(=O)c3ccccc3C2C(=O)c2ccc(C)c(C)c2O)cc1 (stereo not drawn) | 2.75
8 | Cc1ccc2c(c1)NC(=O)CC(c1ccccc1)=N2 | -23.6
9 | CC(OC(=O)c1cccs1)C(=O)Nc1nc(-c2ccccc2)cs1 (stereo not drawn) | 26.3
10 | Nc1nc(COC(=O)C2CC(=O)N(CCc3ccccc3)C2)nc(Nc2ccccc2)n1 (stereo not drawn) | -52.2
11 | CCCc1nc2oc3ccccc3c(=O)c2c(=O)n1-c1ccccc1 | -1.84
12 | COc1ccc2nc(NC(=O)c3cnccn3)sc2c1 | 8.9
13 | COc1ccc(CNC(=O)Cc2csc(Nc3nc(=S)[nH]c4ccccc34)n2)cc1 | 0.211
14 | CNC(=O)c1sc(Nc2ccc(OCc3ccccc3)cc2)nc1C | 7.65
15 | O=C(CCc1nc2ccccc2c(=O)[nH]1)N1CCN(S(=O)(=O)c2cccc(F)c2)CC1 | -5.05
16 | CCCCc1nnc(NC(=O)CS(=O)(=O)Cc2ccccc2)s1 | 11.5
17 | O=S(=O)(c1ccc2ccccc2c1)N1CCN=C1SCc1cccnc1 | -43.9
18 | O=C(CN1CCN(c2ccccc2F)CC1)c1ccc2cc[nH]c2c1 | -82.9
19 | Cl.OC(COc1ccccc1)CN1C2=NCCCN2c2ccccc21 (stereo not drawn) | -67
20 | COc1cc(C(=O)N2CCN(S(=O)(=O)c3ccc(F)cc3)CC2)cc(OC)c1OC | -1.48
21 | Cc1cc(C)cc(NS(=O)(=O)c2c(C)[nH]c(=O)[nH]c2=O)c1 | 24.4
22 | COc1cccc(NC(=O)c2ccc3c(c2)N(CC(=O)N2CCOCC2)C(=O)C(C)(C)O3)c1 | -5.35

Row | SMILES | hERG current change (%, negative = inhibition) at 10uM [%]
23 | Cc1sc2ncn(CC(=O)N3CCN(c4ccc(F)cc4)CC3)c(=O)c2c1S(=O)(=O)N1CCOCC1 | -64.3
24 | Cl.O=C(O)c1cc(S(=O)(=O)N2CCN(C(c3ccccc3)c3ccccc3)CC2)ccc1Cl | 14.7
25 | O=C(Nc1cccc(CNCCc2c[nH]c3ccccc23)c1)c1ccccc1Cl.O=C(O)C(=O)O | -17.7
26 | Cc1ccc(Cl)cc1NC(=S)NCCCSC1CCCCC1 | 9.82
27 | COc1ccccc1Nc1nc(-c2sc(NC(=O)c3ccco3)nc2C)cs1 | 6.43
28 | Cc1ccc(NC(=O)CCC(=O)N2CCOc3ccccc32)c(Cl)c1 | -8.08
29 | O=C(COc1ccccc1[N+](=O)[O-])N1CCCc2ccccc21 | 7.26
30 | COc1ccc(CCn2c(=O)c3cccnc3n(Cc3cccc([N+](=O)[O-])c3)c2=O)cc1OC | 0.296
31 | CC(C)[C@H](NC(=O)N1c2ccccc2NC(=O)[C@@H]1C(C)C)C(=O)N1CCC(C(=O)O)CC1 | -4.78
32 | CC(=O)c1ccc(-n2c(C)ccc2-c2ccccc2)cc1 | 1
33 | O=C(CCn1cnc2ccccc21)N/N=C/c1ccccc1O | -11.7
34 | CCOC(=O)C1=C(O)C(=O)N(Cc2ccc(C(C)(C)C)cc2)CC1 | 13.1
35 | CS(=O)(=O)c1ccc(C(=O)Nc2ccccc2N2CCOCC2)c(Cl)c1 | -3.63
36 | COc1ccc(C(=O)CC(=O)c2ccc(C)cc2)c(O)c1 | 15.5
37 | Cc1sc(NC(=S)NC(=O)C(C)(C)C)c(C(N)=O)c1C | 12.8
38 | CCOC(=O)C1=C(CSc2nc(C)cc(C)c2C#N)OC(N)=C(C#N)C1c1cccs1 (stereo not drawn) | -4.99
39 | CCOC(=O)c1ccc(N2C(=O)CC(N3CC=C(c4ccc(F)cc4)CC3)C2=O)cc1 (stereo not drawn) | 6.65
40 | COCCn1c(N)c(C(=S)NC(=O)c2cccs2)c(=O)[nH]c1=O | 5.26
41 | Cc1ccc(C)c(C(=O)CN2C(=O)C(=O)N(C3CCCC3)C2=O)c1 | 1.63
42 | O=S(=O)(Nc1cc(S(=O)(=O)N2CCOCC2)ccc1NCC1CCCO1)c1ccccc1 (stereo not drawn) | -11.7
43 | COc1ccc(C2c3ccc4ccccc4c3Oc3ncn(CCCN(C)C)c(=N)c32)cc1 (stereo not drawn) | -76.4
44 | COc1ccc(S(=O)(=O)N2CCC(C(=O)N[C@H](C(=O)NCc3ccco3)C(C)C)CC2)cc1 | 18.6

Row | SMILES | hERG current change (%, negative = inhibition) at 10uM [%]
45 | CN(C)CCNc1oc(COc2ccc(Cl)cc2)nc1C#N | -47.6
46 | Cc1ccc(C(=O)CC(=O)c2ccccc2)cc1 | 16.2
47 | COc1ccc(CNc2ncc(-c3ccc(Cl)cc3)n2C)c(OC)c1OC.O=C(O)C(=O)O | -47
48 | Cl.O=C(c1cccs1)c1coc2ccc(O)c(CN(CCO)CCO)c12 | -41
49 | O=c1c(-c2ccccc2)coc2c(CN3CCOCC3)c(O)ccc12 | -5.67
50 | Cc1ccc([N+](=O)[O-])c2cccnc12 | 11.2
51 | COc1ccc(CCC(=O)NC2CCC(C)CC2)cc1 (stereo not drawn) | 9.84
52 | Cc1ccccc1N1CCN(C2CCCN(C(=O)CCC(=O)N(C)C)C2)CC1 (stereo not drawn) | 9.34
53 | COC(=O)c1cc(Br)c(=O)n(-c2ccccc2F)c1 | -2.93
54 | O=C(c1ccccc1)c1cc(-c2ccccc2)on1 | 7.6
55 | O=C(Nc1cc(S(=O)(=O)N2CCOCC2)ccc1N1CCCC1)C1CC1 | -0.0868
56 | O=C(Nc1cccnc1)c1ccc(S(=O)(=O)N2CCCCCC2)cc1 | 5.14
57 | O=C(/C=C/c1ccccc1[N+](=O)[O-])Nc1ccccc1 | 10.1
58 | COC(=O)c1nnn(-c2nc(N3CCOCC3)nc(N3CCOCC3)n2)c1C | -3.53
59 | Cc1ccc(NC(=O)COC(=O)CCc2c(C)nc3nc(N)nn3c2C)cc1C | -26
60 | CN(C(=O)c1ccco1)c1nc(-c2ccc(F)cc2)cs1 | 12.6
61 | COc1cc2oc(=O)ccc2cc1[C@@H](O)[C@@H]1OC(C)(C)OC1(C)C | 5.94
62 | Cc1ccccc1CNC(=O)CC1C(=O)NCCN1Cc1c(F)cccc1Cl (stereo not drawn) | 2.88
63 | O=C(Cn1c(=O)c2cccn2c2cccnc21)NCCCN1CCN(c2ccc(F)cc2)CC1 | -76.4
64 | COc1cc(C(=O)NC(C)CCn2cccn2)ccc1OC1CCN(C(C)=O)CC1 (stereo not drawn) | 9.56
65 | COc1ccccc1NC(=O)CCCc1nc(-c2ccc(OC)c(OC)c2)no1 | -21
66 | CC1=C/C(=N\NC(=O)c2ccccc2)CC1 | -53.1

Row | SMILES | hERG current change (%, negative = inhibition) at 10uM [%]
67 | CCNc1nc(N)c(C(=O)c2ccc(Cl)s2)s1 | 16.3
68 | CCOC(=O)N1CCN(c2c(NCC3CCCO3)c(=O)c2=O)CC1 (stereo not drawn) | 9.53
69 | Cc1ccc2c(c1)c1c3n2CCN(C(=O)CN2CCN(C)CC2)C3CCC1 (stereo not drawn) | -16.5
70 | CC(C)CCNC(=O)c1ccc(NC(=O)C2=CSCCO2)cc1 | 4.36
71 | O=C(COC(=O)CCNS(=O)(=O)c1ccc2c(c1)OCCO2)NC1CCCc2ccccc21 (stereo not drawn) | -0.954
72 | O=C(CCCN1C(=O)c2cccc3cccc(c23)C1=O)N1CCN(c2ccccc2)CC1 | 15.1
73 | O=C(CN1C(=O)NC2(CCCC2)C1=O)NNC(=O)c1ccc(Cl)cc1 | 4.11
74 | Cc1ccc(Nc2nc3ccccc3s2)c(C)c1 | -9.47
75 | CCCn1nnc(NC(=O)COc2ccc(CC)cc2)n1 | -11.8
76 | COCCCNC(=O)c1ccc2nc3ccccc3c(=O)n2c1 | 14.7
77 | CCN(CC)CCOc1ccc2c(c1)C(=NO)c1cc(OCCN(CC)CC)ccc1-2.Cl | -16.4
78 | CC(C)(C)c1ccc(OC(=O)c2ccccc2)cc1 | 24.7
79 | Cl.O=C(NCC(c1cccs1)N1CCOCC1)c1ccc(Cl)s1 (stereo not drawn) | -21.6
80 | CCOC(=O)CNc1c(-c2ccc(Cl)cc2)nc2cnccn12 | -48
81 | CCO/N=C/C(=O)Nc1ccc(F)cc1F | 12.1
82 | CC(=O)c1cc(CN2CCN(Cc3ccc(C)cc3)C(CCO)C2)cs1 (stereo not drawn) | -55
83 | COc1ccccc1C(=O)NCC(=O)N/N=C/c1cccc(Cl)c1 | -1.56
84 | C=CC[n+]1c(/C=C2\C=Cc3cc(C)ccc3N2CC)ccc2ccccc21.[Br-] | -83.5
85 | CCC12CC3CC(C1)CC(C(=O)NNC(N)=O)(C3)C2 | 9.38
86 | CCCCc1c(C)nn(-c2nnc3c4ccccc4n(CC)c3n2)c1C | 5.88
87 | Cc1ccnc(Nc2nc(-c3c(C)nc4sccn34)cs2)c1 | -13.9
